Our source for the cytotoxicity call and growth inhibition call values is the antibiotic and cytotoxicity screens of Wong et al. (2023).

Structures are written as SMILES. This is one part of the list.

In assay [1] the test system is HSkMC (human skeletal muscle cells). Kind of assay: cytotoxicity call (relative viability < 0.9). The following applies: 10 µM.
In assay [2] the test system is HepG2. Kind of assay: cytotoxicity call (relative viability < 0.9). The following applies: 10 µM.
The subject of assay [3] is S. aureus RN4220. The assay is described as follows: growth inhibition call (relative growth <= 0.2). The following applies: 50 µM.

Turning to `C[C@@H]1CN([C@@H](C)CO)C(=O)Cc2cc(NC(=O)NC3CCCCC3)ccc2O[C@@H]1CN(C)Cc1ccc(C(=O)Nc2ccccc2N)cc1`, the cytotoxicity call in assay [1] and in assay [2] was “inactive” throughout. In assay [3], the growth inhibition call was “inactive”.
As to `C[C@H]1CN([C@@H](C)CO)S(=O)(=O)c2ccc(-c3ccc(C(=O)N(C)C)cc3)cc2O[C@@H]1CN(C)C(=O)C1CC1`, the cytotoxicity call in assay [1] and in assay [2] was “inactive” throughout. Moreover, the growth inhibition call in assay [3] was “inactive”.
With `C[C@@H]1CCCCO[C@@H](CN(C)C(=O)NC2CCCCC2)[C@@H](C)CN([C@H](C)CO)C(=O)c2cc(NC(=O)Nc3cccc4ccccc34)ccc2O1`, the cytotoxicity call in assay [1] and in assay [2] was “inactive” throughout. In addition, the growth inhibition call in assay [3] is “inactive”.
Consider `C[C@@H]1CN([C@@H](C)CO)S(=O)(=O)c2ccc(-c3ccc(C(=O)N(C)C)cc3)cc2O[C@@H]1CN(C)C(=O)C1CCOCC1`, for which the cytotoxicity call in assay [1] and in assay [2] was “inactive” throughout. The growth inhibition call in assay [3] is “inactive”.
Consider `CS(=O)(=O)c1ccc(C(O)C(CF)NC(=O)C(Cl)Cl)cc1` (stereo unspecified), for which the cytotoxicity call in assay [1] and in assay [2] was “inactive” throughout. The growth inhibition call in assay [3] is “active”.
`CC[C@@H](CO)NC(=O)c1ccc(N)cc1`: the cytotoxicity call in assay [1] and in assay [2] was “inactive” throughout. In addition, the growth inhibition call in assay [3] is “inactive”.
`CC(C)NC(=O)N(C)C[C@H]1OCCCC[C@H](C)Oc2ccc(NS(=O)(=O)c3cn(C)cn3)cc2C(=O)N([C@H](C)CO)C[C@@H]1C`: the cytotoxicity call in assay [1] and in assay [2] was “inactive” throughout. In addition, the growth inhibition call in assay [3] is “inactive”.
In the case of `C[C@H](CO)N1C[C@H](C)[C@H](CN(C)S(=O)(=O)c2cccs2)OCCCC[C@H](C)Oc2ccc(NC(=O)C3CCCCC3)cc2C1=O`, the cytotoxicity call in assay [1] and in assay [2] was “inactive” each time. The growth inhibition call in assay [3] is “inactive”.
Take `C[C@@H]1CN([C@@H](C)CO)C(=O)c2cc(NS(=O)(=O)c3cccs3)ccc2O[C@@H](C)CCCCO[C@@H]1CN(C)C(=O)Nc1ccc(F)cc1`: the cytotoxicity call in assay [1] and in assay [2] was “inactive” throughout. The growth inhibition call in assay [3] is “inactive”.
Take `COc1cccc(S(=O)(=O)N(C)C[C@H]2Oc3cc(C#CCN(C)C)ccc3S(=O)(=O)N([C@H](C)CO)C[C@@H]2C)c1`: the cytotoxicity call in assay [1] and in assay [2] was “inactive” in each case. In addition, the growth inhibition call in assay [3] is “inactive”.
As for `O=C(C[C@@H]1CC[C@H]2[C@@H](COC[C@@H](O)CN2S(=O)(=O)c2ccccc2Cl)O1)NCc1ccccc1Cl`, the cytotoxicity call in assay [1] and in assay [2] was “inactive” throughout. In assay [3], the growth inhibition call is “inactive”.
`Cc1noc(C)c1S(=O)(=O)N(C)C[C@H]1OCCCC[C@@H](C)Oc2ccc(NC(=O)Nc3cccc4ccccc34)cc2C(=O)N([C@H](C)CO)C[C@@H]1C`: the cytotoxicity call in assay [1] and in assay [2] was “inactive” each time. Further, the growth inhibition call in assay [3] is “inactive”.
Turning to `C[C@@H]1CN([C@H](C)CO)C(=O)c2cc(NC(=O)CCCN(C)C)ccc2O[C@@H](C)CCCCO[C@@H]1CN(C)S(=O)(=O)c1cn(C)cn1`, the cytotoxicity call in assay [1] and in assay [2] was “inactive” throughout. Moreover, the growth inhibition call in assay [3] is “inactive”.
In the case of `O=C(N[C@H]1C=C[C@@H](CC(=O)N2CCOCC2)O[C@@H]1CO)c1ccc2c(c1)OCO2`, the cytotoxicity call in assay [1] and in assay [2] was “inactive” each time. The growth inhibition call in assay [3] was “inactive”.
`CNC[C@H]1Oc2ccc(NS(=O)(=O)c3cn(C)cn3)cc2C(=O)N([C@@H](C)CO)C[C@H]1C`: the cytotoxicity call in assay [1] and in assay [2] was “inactive” each time. Besides, in assay [3], the growth inhibition call was “inactive”.
Consider `CCCCC/C=C\C/C=C\C/C=C\CCCCC(=O)O`, for which the cytotoxicity call in assay [1] and in assay [2] was “inactive” throughout. Further, the growth inhibition call in assay [3] was “inactive”.
For `C[C@@H]1CN([C@@H](C)CO)C(=O)c2cc(NS(=O)(=O)c3ccccc3)ccc2O[C@H]1CN(C)Cc1ccc(Oc2ccccc2)cc1`, the cytotoxicity call in assay [1] and in assay [2] was “inactive” each time. Further, the growth inhibition call in assay [3] is “inactive”.
As for `CC(C)[C@H]1COC(=O)N1`, the cytotoxicity call in assay [1] and in assay [2] was “inactive” throughout. Further, in assay [3], the growth inhibition call is “inactive”.
Take `COc1ccc(CCN(C)CCCOc2ccc(S(=O)(=O)c3c(C(C)C)c4ccccc4n3C)cc2)cc1OC`: the cytotoxicity call in assay [1] and in assay [2] was “active” in each case. In addition, in assay [3], the growth inhibition call is “inactive”.
As for `C[C@@H]1CN([C@H](C)CO)C(=O)c2cc(NS(=O)(=O)c3cn(C)cn3)ccc2O[C@H]1CN(C)C(=O)Nc1ccc(F)cc1`, the cytotoxicity call in assay [1] and in assay [2] was “inactive” in each case. In assay [3], the growth inhibition call was “inactive”.
Take `CN1CCN(c2ccc(OC(F)(F)F)c(Nc3ncc4c(n3)-c3c(c(C(N)=O)nn3CCO)CC4)c2)CC1`: the cytotoxicity call in assay [1] and in assay [2] was “active” throughout. Also, in assay [3], the growth inhibition call is “inactive”.
Regarding `C[C@@H]1CN([C@@H](C)CO)C(=O)c2cc(NC(=O)c3ccncc3)ccc2O[C@@H](C)CCCCO[C@H]1CN(C)C(=O)Nc1cccc2ccccc12`, the cytotoxicity call in assay [1] and in assay [2] was “inactive” throughout. In addition, the growth inhibition call in assay [3] is “inactive”.
With `Cn1cnc(S(=O)(=O)N[C@H]2CC[C@H](CC(=O)N3CCN(c4ccccc4)CC3)O[C@@H]2CO)c1`, the cytotoxicity call in assay [1] and in assay [2] was “inactive” in each case. In addition, in assay [3], the growth inhibition call was “inactive”.
On to `O=c1nc[nH]c2nn(-c3ccccc3)nc12`, for which the cytotoxicity call in assay [1] and in assay [2] was “inactive” throughout. For the same compound, in assay [3], the growth inhibition call is “inactive”.
For the compound `COc1ccc(S(=O)(=O)N(C)C[C@H]2OCc3cnnn3CCCC(=O)N([C@@H](C)CO)C[C@H]2C)cc1`, the cytotoxicity call in assay [1] and in assay [2] was “inactive” each time. For the same compound, in assay [3], the growth inhibition call was “inactive”.
As to `COc1ccc(S(=O)(=O)Nc2cccc3c2O[C@@H](CN(C)Cc2ccncc2)[C@@H](C)CN([C@@H](C)CO)C3=O)cc1`, the cytotoxicity call in assay [1] and in assay [2] was “inactive” in each case. For the same compound, in assay [3], the growth inhibition call was “inactive”.
For the compound `C[C@@H]1CCCCO[C@@H](CN(C)S(=O)(=O)c2cn(C)cn2)[C@@H](C)CN([C@H](C)CO)C(=O)c2cc(NC(=O)Nc3ccc(C(F)(F)F)cc3)ccc2O1`, the cytotoxicity call in assay [1] and in assay [2] was “inactive” each time. For the same compound, the growth inhibition call in assay [3] was “inactive”.
